Over roughly 33,000 sequences, “E-score (-0.5 to 0.5)” has its median near -0.054; the highest 2% begin near 0.35. This is one part of the list.
Target: T1, Stb5 (UniProt P38699)
T1 sequence: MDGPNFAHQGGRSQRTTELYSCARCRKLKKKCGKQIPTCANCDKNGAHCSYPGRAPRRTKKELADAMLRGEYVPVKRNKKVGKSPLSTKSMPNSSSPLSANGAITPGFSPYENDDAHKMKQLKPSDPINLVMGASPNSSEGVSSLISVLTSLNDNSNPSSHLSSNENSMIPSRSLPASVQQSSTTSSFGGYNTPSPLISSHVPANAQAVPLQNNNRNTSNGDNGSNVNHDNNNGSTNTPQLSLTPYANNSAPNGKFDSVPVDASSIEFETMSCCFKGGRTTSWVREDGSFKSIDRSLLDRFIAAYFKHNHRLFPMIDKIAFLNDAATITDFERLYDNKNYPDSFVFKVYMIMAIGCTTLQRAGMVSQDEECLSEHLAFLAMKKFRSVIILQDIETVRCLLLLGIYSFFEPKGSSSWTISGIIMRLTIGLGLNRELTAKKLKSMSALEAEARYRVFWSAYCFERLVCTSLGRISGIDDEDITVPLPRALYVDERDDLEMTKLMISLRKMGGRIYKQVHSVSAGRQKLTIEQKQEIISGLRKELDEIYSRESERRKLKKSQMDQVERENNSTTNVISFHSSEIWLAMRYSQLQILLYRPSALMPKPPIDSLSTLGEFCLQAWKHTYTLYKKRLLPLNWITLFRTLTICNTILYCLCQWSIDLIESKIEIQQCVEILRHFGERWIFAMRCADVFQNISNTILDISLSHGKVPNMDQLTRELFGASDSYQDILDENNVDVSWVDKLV
Experiment: PBM E-score (8-mer binding enrichment) (E-score (-0.5 to 0.5)); higher = stronger / more preferred TF binding; most listed sequences are background and not binding sites
Settings: protein concentration: 200 nM; construct: GST-full length
Protocol: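 Universal 'all 10-mer' protein binding microarrays (Agilent AMADID 015681) probed with GST-tagged S. cerevisiae TFs (full-length or DBD) made by in vitro transcription/translation (PURExpress), about 100-200 nM. Bound TF was detected with fluorescent anti-GST. Each ungapped 8-mer (which stands for itself and its reverse complement) is scored by the PBM enrichment score (E-score), a modified Wilcoxon-Mann-Whitney statistic from -0.5 to +0.5, computed with the Universal PBM Analysis Suite. Scale: above 0.35 generally sequence-specific binding.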

Sequence	PBM E-score
CGCGGGAA	0.272
GGAGATCA	-0.175
ATGGGGCA	-0.113
CAACTGAA	-0.216
CCGCCGAA	0.347
ACCCAGGC	0.127
CTCGCAAG	-0.259
AGTATTAA	-0.0112
AATGAGCG	0.0158
CGATATCC	0.0897
CGTATAAC	0.0916
ACGGCGTC	0.392
AATTGGTG	-0.12
GCGTCCAC	-0.0568
CATTTCCA	-0.272
GCTTAAAA	0.175
ATACTGCC	0.205
CCACCTTA	-0.132
CAGTGTCC	-0.0673
GTCAGGAA	-0.306
AACCGGCT	0.25
ACGCTGAT	0.0498
GTAAAATA	0.0594
ATAGCTTG	-0.09
AAGCGACC	0.0186

Sequence	PBM E-score
TACAGGGA	-0.152
CGTCGGAC	0.38
GGGGGCTA	0.0408
AGAACTGG	-0.185
AACGACCA	-0.237
AATACTGA	-0.19
AATGGCAT	0.0389
GGAGGACA	-0.109
ATGCTTCA	-0.174
GGACCAGA	-0.0836
TAAGACCA	-0.079
CTCCACCA	-0.0752
GGTCTAAA	0.0728
ACATACGG	0.117
GAAACAAC	-0.124
ACTTTCTA	-0.13
CGAGCTGC	-0.157
AGGTAGAA	-0.102
AAAAGGGC	-0.216
CGAGTTGA	-0.0448
GCACGGAA	-0.00259
GCGCATCA	-0.0162
GGGACTAA	0.246
AAAGGTGC	-0.0655
AGCTGCTC	-0.319

Sequence	PBM E-score
CAGCTTAC	-0.0458
ATCGTACC	0.157
AAGTCCAA	0.0242
GGTAGGCA	-0.125
AATTTCCA	-0.0589
CACGCAAA	-0.0178
AGAGGCGG	0.253
ATGACCGA	0.31
CTACCCGA	-0.0648
AAAAGTTC	-0.046
GGTACCAA	0.165
ATTTTCTA	-0.195
AAACTCTG	-0.125
CGGGCACC	0.167
GGACCTTA	0.2
CGTACTAG	-0.165
CCCTAGGC	-0.177
TAGTGAAA	-0.162
CACTGTCC	-0.199
CCCAGCCG	-0.203
GTACTTTA	0.00909
CTGCAACC	-0.192
AACTGATA	0.0121
CTCTCCGC	0.0985
CATTTGAA	0.0393

Sequence	PBM E-score
CGTGCTGC	-0.07
GTTAGTTA	0.056
AATAGATG	-0.00833
GCCGAGCC	0.0692
ACACTCGA	-0.2
AGTCCCCG	0.2
AATTGATC	-0.034
AGTGAGAT	-0.16
CATAAGGG	-0.0499
GAAACACC	0.249
CCGCTGGC	0.218
AGCCTATA	-0.196
GCCCACTA	-0.249
AGGGTCGG	0.317
CGGGTATA	0.403
AGAGCACT	-0.175
CCCTTGCG	-0.114
TATACCCA	-0.0259
ATGCGTAA	-0.0634
CGCAAGTC	-0.0245
AGTGTATC	-0.148
ATAATACG	0.153
CACTCACG	-0.0964
ACATACTG	-0.09
CAGGCCCG	0.109

Sequence	PBM E-score
AACGGAAA	0.129
CGGTGCTC	0.327
AGTCTCGA	-0.212
CTTCTCCC	-0.208
GTCCAGCA	-0.365
CTGATACC	0.153
CGGCGCTC	0.204
TCGCGTAA	0.144
AGAAATCG	0.0195
GACTCATA	-0.0292
AAGTCTCA	-0.205
AACGCATC	0.0343
AAAGATAG	-0.235
CTAATGAA	0.0677
AGTTAAGC	0.121
ACTAACAC	0.0421
CGCGAAAA	0.212
CCTAATCG	-0.0955
CTTTTGAA	0.0323
CTTGGAGA	-0.0702
ACGGAAGA	0.0597
ATATTATA	0.143
ATACACCG	0.402
AAGCGGCC	0.262
CGGCCTGA	0.236

Sequence	PBM E-score
CCGTACCG	0.28
ATTTAGAA	-0.0582
CTGGTCAA	-0.00732
CTAGACCA	-0.378
CACGAGCG	0.086
GGACCCAC	0.0454
GACAAAGA	-0.0701
GGCACAAA	0.122
CAGTGTAA	-0.141
CACTCCTC	-0.234
AGCTCCGG	0.362
CTACGACC	-0.0815
CCGGTCTA	0.216
AGGAGCTC	-0.144
AACCATTA	-0.0328
AGACCATC	-0.249
GAGGATGA	-0.0572
CAGGTCTA	-0.254
CAAACGGC	0.111
AAGCTGAC	-0.089
CCGGCATC	0.28
CCTGTGAC	-0.0962
ATTGAAGG	-0.046
AGCGTAGC	-0.0925
GAGATTGC	-0.0088

Sequence	PBM E-score
CTCCGCCC	0.397
CCTTCGTC	-0.227
GCAGAGTA	-0.202
AATAGCGG	0.322
GAGTATTA	0.0885
GAGCCCGA	0.264
ACCGCAGT	0.206
ACCGACCC	0.361
AAAAGGAC	-0.0304
AACCACTG	-0.192
TCGGAGCA	0.198
CCGAACCA	0.117
AAATGCCG	0.435
CCCTCTAC	-0.283
AATGATTC	-0.0738
AGCCCGCA	0.259
ACCTGAGA	-0.23
AGGCGACT	-0.112
CCTAAGGA	0.0237
CCCTATGC	-0.293
ACTTCGGA	0.116
AGAAAGCG	-0.0568

Reference: the supplement of paper PMC3334620
